Measurements reported in the supplement of paper PMC10338343.
± gives the standard deviation. This is a selection; strong and weak results do not stand in their true shares.

These sequences were tested on MIWI (PIWIL1) piRISC loaded with L1MC piRNA (30 nt) (assay: pre-steady-state target cleavage rate (min^-1); MIWI and MILI are mouse PIWI proteins and EfPiwi is from a freshwater sponge; tags in brackets are library labels; higher = faster piRNA-guided slicing of the target). Details: guide: L1MC piRNA 5'p-UAACUAAAUACUAUGCAAGCUGUAGGUCCU; auxiliary factor: 500 nM mouse GTSF1.
Protocol: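 Cleave-'n-Seq: a library of target RNAs (target site embedded in constant flanks, ACAGCATTCCGCGTTAGTGATATCCG... 5' flank; DNA-blocked outside the site) at 0.1 nM was incubated with 1 nM active mouse MILI or MIWI piRISC (synthetic 5'-monophosphorylated piRNA guide) with or without 500 nM mouse GTSF1 at 33 °C for 1 min to 16 h. Uncleaved targets were sequenced and normalised to non-target controls, and the pooled three trials were fitted to a burst-and-steady-state model to give the pre-steady-state cleavage rate (min^-1; k3 is constrained to at most 1e-4). Sequence is the target site only; target names encode pairing extent (gX:gY) and contiguous / 1-mismatch / 2-mismatch / bulge geometry. Fits with R² ≤ 0 are excluded.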

| Sequence | pre-steady-state target cleavage rate |
| --- | --- |
| UCCUGGAUGAGCUUGCAUAGUAUUUGUUA | 0.041 ± 0.011 |
| ACGACCUACAGCUUGCAUAGUAUUUUCAAA | 0.618 ± 0.067 |
| UCCUGGAUCAGCUUGCAUAGUAGUUAGUUA | 0.571 ± 0.039 |
| UCCUCCUACAGCUUGCAUAGAAUUAAGUUA | 0.264 ± 0.038 |
| UCCUGGAUGAGCUUGCAUAGUAUUAUGUAA | 0.00793 ± 0.0045 |
| UCCUGGAUGUCCUUGCAUAGUAUAUAGUUA | 0.0245 ± 0.0072 |
| UCCACCUCAGCUUGCAUAGUAUUUAGUUA | 0.878 ± 0.07 |
| UCCUGGAAGAGCUUGCAUAGUAUUUAGUAA | 0.596 ± 0.047 |
| AGGAGCUACAGCUUGCAUUGUAUUUAGUUA | 0.9 ± 0.045 |
| AGGACCUACAGCUUGCAUAGUAUUUAGUAUA | 0.879 ± 0.055 |
| UCCUGCUACAGGUUGCAAAGUAUUUAGUUA | 1.11 ± 0.066 |
| UCCUGGAUGUGCUUGCAUAGUAUUGUAGUUA | 0.199 ± 0.023 |
| UCCUGCUACAGCUUGGUUAGUAUUUAGAAA | 0.0586 ± 0.014 |
| UCCUGGAUCUCGUUGCAUAGUAUUUAGUUA | 0.156 ± 0.016 |
| AGGACCUAGAGCUUGCAUAGUAUUAAGUUA | 0.56 ± 0.058 |
| UCCUGGAACAGCUUGCAUAGUAUAUAGAUA | 0.169 ± 0.024 |
| UCCUGGAUGAGCUUGCAUAGUAUAAUGAAA | 0.0125 ± 0.0051 |
| UCCACGAACAGCUUGCAUAGUAUUUAGAAA | 0.328 ± 0.039 |
| AGGACCUUCAGCUAGCAUAGUAUUUAGUUA | 1.06 ± 0.046 |
| UCCUGGAUGAGCUUGCAAUGUAUUUAGUUA | 0.0309 ± 0.0055 |
| UCGACCUACAGUUUGCAUAGUAUUUAGUUA | 1.37 ± 0.054 |
| UCCUGGAUGUGCUUGCGUAGUAUUUAGUUA | 0.188 ± 0.024 |

Same assay, conditions: guide: L1MC piRNA 5'p-UAACUAAAUACUAUGCAAGCUGUAGGUCCU; auxiliary factor: none (no GTSF1)

| Sequence | pre-steady-state target cleavage rate |
| --- | --- |
| UCCUGGAUGAGCUUGCAUAGUAUUUGUUA | 0.00336 ± 0.0031 |
| ACGACCUACAGCUUGCAUAGUAUUUUCAAA | 0.00505 ± 0.004 |
| UCCUGGAUCAGCUUGCAUAGUAGUUAGUUA | 0.0184 ± 0.0056 |
| UCCUCCUACAGCUUGCAUAGAAUUAAGUUA | 0.00653 ± 0.0024 |
| UCCUGGAUGUCCUUGCAUAGUAUAUAGUUA | 0.00503 ± 0.0025 |
| UCCACCUCAGCUUGCAUAGUAUUUAGUUA | 0.0436 ± 0.0088 |
| UCCUGGAAGAGCUUGCAUAGUAUUUAGUAA | 0.0217 ± 0.0058 |
| AGGAGCUACAGCUUGCAUUGUAUUUAGUUA | 0.0371 ± 0.0084 |
| AGGACCUACAGCUUGCAUAGUAUUUAGUAUA | 0.172 ± 0.054 |
| UCCUGCUACAGGUUGCAAAGUAUUUAGUUA | 0.0219 ± 0.0044 |
| UCCUGGAUGUGCUUGCAUAGUAUUGUAGUUA | 0.0189 ± 0.006 |
| UCCUGGAUCUCGUUGCAUAGUAUUUAGUUA | 0.00559 ± 0.0022 |
| AGGACCUAGAGCUUGCAUAGUAUUAAGUUA | 0.0254 ± 0.0057 |
| UCCUGGAACAGCUUGCAUAGUAUAUAGAUA | 0.00459 ± 0.0033 |
| UCCACGAACAGCUUGCAUAGUAUUUAGAAA | 0.00702 ± 0.0022 |
| AGGACCUUCAGCUAGCAUAGUAUUUAGUUA | 0.0561 ± 0.012 |
| UCCUGGAUGAGCUUGCAAUGUAUUUAGUUA | 0.0041 ± 0.0026 |
| UCGACCUACAGUUUGCAUAGUAUUUAGUUA | 0.0619 ± 0.0092 |
| UCCUGGAUGUGCUUGCGUAGUAUUUAGUUA | 0.0286 ± 0.0069 |
